Reference: the RNAGym collection of RNA variant scans (doi:10.7554/elife.90254)
The source gives no read counts; variants with many changes may rest on few reads.

B1: OR4K15 (parent)
chain: GUUAACGGUCAUAGGCCAUGGAAACUAGGAGCACCAUUUCGCUGCCAGUGAAGAAAUGAACAAAGAAAAUCUGGGCCAGGCAGGCAUCAAAAGAAAUAGUCUUGCGCUCAACCAGAAAGUCUGUAAUCAUUUUAAGGGUA

Variants of: B1
Experiment: self-cleavage, relative activity (ratio to wild type); higher = more cleavage; in vitro, sequencing; the parent is a self-cleaving ribozyme

Row | Variant | self-cleavage
1 | GUUAACGGUCAUAGGCCAUGGAAGCUAGGAGCACCAUUUCGCUGCCAGUGAAGAAAUGGACAAAGAAAAUCUGGGCCAGGCAGGCAUCAAAAGAAAUAGUCUUGCGCCCAACCAGAAAGUCUGUAAUCAUUUUAAGGGUA [A24G A59G U108C] | 0.02
2 | GUUAACGGUCAUAGGCCAUGGAAGCUAGGAGCACCAUUUCGCUGCCAGUGAAGAAAUGUACAAAGAAAAUCUGGGCCAGGCAGGCAUCAAAAGAUAUAGUCUUGCGCUCAACCAGAAAGUCUGUAAUCAUUUUAAGGGUA [A24G A59U A95U] | 1.4
3 | GUUAACGGUCAUAGGCCAUGGAAGCUAGGAGCACCAUUUCGCUGCCAGUGAAGAAAUGAACCAAGAGAAUCUGGGCCAGGCAGGCAUCAAAAGAAAUAGUCUUGCGCUCAACCAGAAAGUCUGUAAUCAUUUUAAGGGUA [A24G A62C A67G] | 0.89
4 | GUUAACGGUCAUAGGCCAUGGAAGCUAGGAGCACCAUUUCGCUGCCAGUGAAGAAAUGAACGAGGAAAAUCUGGGCCAGGCAGGCACCAAAAGAAAUAGUCUUGCGCUCAACCAGGAAGUCUGUAAUCAUUUUAAGGGUA [A24G A62G A64G U87C A116G] | 0.78
5 | GUUAACGGUCAUAGGCCAUGGAAGCUAGGAGCACCAUUUCGCUGCCAGUGAAGAAAUGAACGAAGAAAGUCUGGGCCAGGCAGGCAUCAAAAGAAAUAGUCUUGCGCUCAACCAGAAAGUCUGUAAUCAUUUUGAGGGUA [A24G A62G A69G A134G] | 1.43
6 | GUUAACGGUCAUAGGCCAUGGAAGCUAGGAGCACCAUUUCGCUGCCAGUGAAGAAAUGAACGAAGAAAAUCUGGGCCAGGCAGGCACCAAAAGAAAUAGUCUUGCGCUCAACCAGAAAGUCUGUAAUCAUUUUAAGGGUA [A24G A62G U87C] | 0.43
7 | GUUAACGGUCAUAGGCCAUGGAAGCUAGGAGCACCAUUUCGCUGCCAGUGAAGAAAUGAACAAGGGAAAUCCGGGCCAGGCAGGCAUCAAAAGAAAUAGUCUUGCGCUCAACCAGAAAGUCUGUAAUCAUUUUAAGGGUA [A24G A64G A66G U72C] | 0.5
8 | GUUAACGGUCAUAGGCCAUGGAAGCUAGGAGCACCAUUUCGCUGCCAGUGAAGAAAUGAACAAGGAAAAUCUGGGCCAGGCAGGCAUCAAAAGAAAUAGUCUUGCGCUCAACCAGGAUGUCUGUAAUCAUUUUAAGGGUA [A24G A64G A116G A118U] | 0.25
9 | GUUAACGGUCAUAGGCCAUGGAAGCUAGGAGCACCAUUUCGCUGCCAGUGAAGAAAUGAACAAAGGAGAUCUGGGCCAGGCAGGCAUCAAAAGAAAUAGUCUUGCGCUCAGCCAGAAAGUCUGUAAUCAUUUUAAGGGUA [A24G A66G A68G A111G] | 0.03
10 | GUUAACGGUCAUAGGCCAUGGAAGCUAGGAGCACCAUUUCGCUGCCAGUGAAGAAAUGAACAAAGGAAGUCUGGGCCAGGCAGGCAUCAAAAGAAAUAGUCUUGCGCUCAACCAGAAAGUCUGUAAUCAUUUUAAGGGUA [A24G A66G A69G] | 1.43
11 | GUUAACGGUCAUAGGCCAUGGAAGCUAGGAGCACCAUUUCGCUGCCAGUGAAGAAAUGAACAAAGGAAAUCUGGGCCAGGCAGGCAUCAAAAGAAAUAGUCUUGCGCUCAACCAGAGAGUCUGUAAUCAUUUUAAGGGUA [A24G A66G A117G] | 1.82
12 | GUUAACGGUCAUAGGCCAUGGAAGCUAGGAGCACCAUUUCGCUGCCAGUGAAGAAAUGAACAAAGUAAAUCUGGGCCAGGCAGGCAUCAAAAGAGAUAGUCUUGCGCUCAACCAGAAAGUCUGUAAUCACUUUAAGGGUA [A24G A66U A95G U130C] | 0.78
13 | GUUAACGGUCAUAGGCCAUGGAAGCUAGGAGCACCAUUUCGCUGCCAGUGAAGAAAUGAACAAAGUAAAUCUGGGCCAGGCAGGCAUCAAAAGAAAUAGUCUUGCGCUCAACCAGAAAGUCUGUAAACAUUUUAAGGGUA [A24G A66U U127A] | 0.87
14 | GUUAACGGUCAUAGGCCAUGGAAGCUAGGAGCACCAUUUCGCUGCCAGUGAAGAAAUGAACAAAGACAAUCUGGGCCAGGCAGGCAUCAAAAGAAAUAGUCUUGCGCUCAACCAGAAAGUCUGUAAUCGUUUUAAGGGUA [A24G A67C A129G] | 1.09
15 | GUUAACGGUCAUAGGCCAUGGAAGCUAGGAGCACCAUUUCGCUGCCAGUGAAGAAAUGAACAAAGAGAAUCUGGGCCAGGCAGGCAUCAAAAGAAAUAGUCUUGCGCUCAACCAGAGAGUCUGUAAUCAUCUUAAGGGUA [A24G A67G A117G U131C] | 1.45
16 | GUUAACGGUCAUAGGCCAUGGAAGCUAGGAGCACCAUUUCGCUGCCAGUGAAGAAAUGAACAAAGAUAAUCUGGGCCAGGCAGGCAUCAAAAGAAAUAGUCUUGCGCUCAGCCAGAAAGUCUGUAAUCAUUCUAAGGGUA [A24G A67U A111G U132C] | 0.02
17 | GUUAACGGUCAUAGGCCAUGGAAGCUAGGAGCACCAUUUCGCUGCCAGUGAAGAAAUGAACAAAGAAAGUCUGGGCCAGGCAGGCAUCAAGAGAAAUAGUCUUGCGCUCAACCAGAAAGUCUGUAAUCAUUUUAAGGGUA [A24G A69G A91G] | 0.55
18 | GUUAACGGUCAUAGGCCAUGGAAGCUAGGAGCACCAUUUCGCUGCCAGUGAAGAAAUGAACAAAGAAAGUCUGGGCCAGGCAGGCAUCAAAAGAAAUAGUCUUGCGCUCAACCAGAAAGUCUGUAACCAUUUUAAGGGUA [A24G A69G U127C] | 0.45
19 | GUUAACGGUCAUAGGCCAUGGAAGCUAGGAGCACCAUUUCGCUGCCAGUGAAGAAAUGAACAAAGAAAUUCUGGGCCAGGCAGGCACCAAAAGAGAUAGUCAUGCGCUCAACCAGAAAGUCUGUAAUCAUUUUAAGGGUA [A24G A69U U87C A95G U102A] | 1.47
20 | GUUAACGGUCAUAGGCCAUGGAAGCUAGGAGCACCAUUUCGCUGCCAGUGAAGAAAUGAACAAAGAAAAUCUGGGCCGGGCAGGCAUCAAAAGAGAUAGUCUUGCGCUCAACCAGAAAGUCUGUAAUCAUUUUAAGGGUA [A24G A78G A95G] | 0.16
21 | GUUAACGGUCAUAGGCCAUGGAAGCUAGGAGCACCAUUUCGCUGCCAGUGAAGAAAUGAACAAAGAAAAUCUGGGCCAGGCGGGCACCAAAAGAAAUAGUCUUGCGCUCAACCAGAAAGCCUGUAAUCAUUUUAAGGGUA [A24G A82G U87C U120C] | 0.13

Row | Variant | self-cleavage
22 | GUUAACGGUCAUAGGCCAUGGAAGCUAGGAGCACCAUUUCGCUGCCAGUGAAGAAAUGAACAAAGAAAAUCUGGGCCAGGCAGGCAUCGAAAGGAAUAGUCUUGCGCUCAACCAGAAAGUCUGUAAUCAUUUUAAGGGUA [A24G A89G A94G] | 0.88
23 | GUUAACGGUCAUAGGCCAUGGAAGCUAGGAGCACCAUUUCGCUGCCAGUGAAGAAAUGAACAAAGAAAAUCUGGGCCAGGCAGGCAUCAGAAGAAAUAGUCUUGCGCUCAACCAGAAAGUCUGUAAUCAUUUUAAGGGAA [A24G A90G U139A] | 0.89
24 | GUUAACGGUCAUAGGCCAUGGAAGCUAGGAGCACCAUUUCGCUGCCAGUGAAGAAAUGAACAAAGAAAAUCUGGGCCAGGCAGGCAUCAAGAGAAAUAGUCUUGCGCUCAACCAGAAAGUCUGUAAUCAUUCUAAGGGUA [A24G A91G U132C] | 0.44
25 | GUUAACGGUCAUAGGCCAUGGAAGCUAGGAGCACCAUUUCGCUGCCAGUGAAGAAAUGAACAAAGAAAAUCUGGGCCAGGCAGGCAUCAAAGGAAAUAGUCUUGCGCCCAACCAGAAAGGCUGUAAUCAUUUUAAGGGUA [A24G A92G U108C U120G] | 0.03
26 | GUUAACGGUCAUAGGCCAUGGAAGCUAGGAGCACCAUUUCGCUGCCAGUGAAGAAAUGAACAAAGAAAAUCUGGGCCAGGCAGGCAUCAAAUGAAAUAGUCUUGCGCCCAACCAGAAAGUCUGUAAUCAUUUUAAGGGUA [A24G A92U U108C] | 0.04
27 | GUUAACGGUCAUAGGCCAUGGAAGCUAGGAGCACCAUUUCGCUGCCAGUGAAGAAAUGAACAAAGAAAAUCUGGGCCAGGCAGGCAUCAAAAGGAAUAGUCUUGCGCUCAACCAGAAAGUCUGAAAUCACUUUAAGGGUA [A24G A94G U124A U130C] | 0.24
28 | GUUAACGGUCAUAGGCCAUGGAAGCUAGGAGCACCAUUUCGCUGCCAGUGAAGAAAUGAACAAAGAAAAUCUGGGCCAGGCAGGCAUCAAAAGGAAUAGUCUUGCGCUCAACCAGAAAGUCUGCAAUCAUUUUAAGGGUA [A24G A94G U124C] | 1.35
29 | GUUAACGGUCAUAGGCCAUGGAAGCUAGGAGCACCAUUUCGCUGCCAGUGAAGAAAUGAACAAAGAAAAUCUGGGCCAGGCAGGCAUCAAAAGGAAUAGUCUUGCGCUCAACCAGAAAGUCUGUAACCAUUUUAAGGGUA [A24G A94G U127C] | 1.21
30 | GUUAACGGUCAUAGGCCAUGGAAGCUAGGAGCACCAUUUCGCUGCCAGUGAAGAAAUGAACAAAGAAAAUCUGGGCCAGGCAGGCAUCAAAAGAGAUAGUCUUGCGCUCAACCAGAAAGUCUGUAAUCAUUUUACGGGUA [A24G A95G A135C] | 1.9
31 | GUUAACGGUCAUAGGCCAUGGAAGCUAGGAGCACCAUUUCGCUGCCAGUGAAGAAAUGAACAAAGAAAAUCUGGGCCAGGCAGGCAUCAAAAGAGAUAGUCUUGCGCUCAACCAGAAAGUCUGUAACCAUUUUAAGGGUA [A24G A95G U127C] | 1.28
32 | GUUAACGGUCAUAGGCCAUGGAAGCUAGGAGCACCAUUUCGCUGCCAGUGAAGAAAUGAACAAAGAAAAUCUGGGCCAGGCAGGCAUCAAAAGAAGUAGUCUUGCGCUCAACCAGAAAGCCUGUAAUCAUUUUAAGGGUA [A24G A96G U120C] | 0.79
33 | GUUAACGGUCAUAGGCCAUGGAAGCUAGGAGCACCAUUUCGCUGCCAGUGAAGAAAUGAACAAAGAAAAUCUGGGCCAGGCAGGCAUCAAAAGAAAUAGUCUUGCGCUCAGCAAGAAAGUCUGUAAUCAUUUUAAGGGUA [A24G A111G C113A] | 0.01
34 | GUUAACGGUCAUAGGCCAUGGAAGCUAGGAGCACCAUUUCGCUGCCAGUGAAGAAAUGAACAAAGAAAAUCUGGGCCAGGCAGGCAUCAAAAGAAAUAGUCUUGCGCUCAACCGGAAAGUCUGUAAUCUUUUUAAGGGUA [A24G A114G A129U] | 0.08
35 | GUUAACGGUCAUAGGCCAUGGAAGCUAGGAGCACCAUUUCGCUGCCAGUGAAGAAAUGAACAAAGAAAAUCUGGGCCAGGCAGGCAUCAAAAGAAAUAGUCUUGCGCUCAACCGGAAAGCCUGUAAUCAUUUUAAGGGUA [A24G A114G U120C] | 0.17
36 | GUUAACGGUCAUAGGCCAUGGAAGCUAGGAGCACCAUUUCGCUGCCAGUGAAGAAAUGAACAAAGAAAAUCUGGGCCAGGCAGGCAUCAAAAGAAAUAGUCUUGCGCUCAACCAGUAGGUCUGUAAUCAUUUUAAGGGUA [A24G A116U A118G] | 0.07
37 | GUUAACGGUCAUAGGCCAUGGAAGCUAGGAGCACCAUUUCGCUGCCAGUGAAGAAAUGAACAAAGAAAAUCUGGGCCAGGCAGGCAUCAAAAGAAAUAGUCUUGCGCUCAACCAGAAGGUCUGUAGUCAUUUUAAGGGUA [A24G A118G A126G] | 0.49
38 | GUUAACGGUCAUAGGCCAUGGAAGCUAGGAGCACCAUUUCGCUGCCAGUGAAGAAAUGAACAAAGAAAAUCUGGGCCAGGCAGGCAUCAAAAGAAAUAGUCUUGCGCUCAACCAGAAAGUCUGUGACCAUUUUAAGGGUA [A24G A125G U127C] | 0.33
39 | GUUAACGGUCAUAGGCCAUGGAAGCUAGGAGCACCAUUUCGCUGCCAGUGAAGAAAUGAACAAAGAAAAUCUGGGCCAGGCAGGCAUCAAAAGAAAUAGUCUUGCGCUCAACCAGAAAGUCUGUAGUCAUCUUAAGGGUA [A24G A126G U131C] | 0.67
40 | GUUAACGGUCAUAGGCCAUGGAAGCUAGGAGCACCAUUUCGCUGCCAGUGAAGAAAUGAACAAAGAAAAUCUGGGCCAGGCAGGCAUCAAAAGAAAUAGUCUUGCGCUCAACCAGAAAGUCUGUAAUCUUUAUAAGGGUA [A24G A129U U132A] | 1.07
41 | GUUAACGGUCAUAGGCCAUGGAAGCUAGGAGUACCAUUUCGCUGCCAGUGAAGAAAUGAACGAAGAAAAUCUGGGCCAGGCAGGCAUCAAAAGAAAUAGUCUUGCGCUCAACCAGAAGGUCUGUAAUCAUUUUAAGGGUA [A24G C32U A62G A118G] | 0.22
